± gives the standard deviation of the averaged measurements. Some of the results follow.

This test concerns PfAP2-G AP2 domain (GST-tagged). As to the kind of experiment: gcPBM binding intensity (ln(normalized median fluorescence intensity)); higher = stronger DNA binding. Put shortly:
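The highest Masliner-normalised natural-log median intensity across replicate spots of either probe orientation is reported as binding intensity. GST-tagged P. falciparum DNA-binding domains expressed in E. coli were applied for 1 h to an Agilent 4 × 180k array of primer-extended double-stranded 36-bp intergenic genomic probes plus negative controls, and bound protein was detected with Alexa488 anti-GST antibody and scanned at 488 nm.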
On to “TCGTACTTGTATTATGCACACATATAATTAAACATA [CACACA_site9089]”, for which the “gcPBM binding intensity (ln)” value was 11.2 ± 0.98.

On to “TTTGTTTTAAATATTATACACACGTAAAAGTATAAT [CACACA_site7954]”, for which the “gcPBM binding intensity (ln)” value came out at 10.7 ± 0.45.

Regarding “TAATATTATATATAAACACACATACCCATGTAAATA [CACACA_site5170]”, the “gcPBM binding intensity (ln)” value worked out at 10.12 ± 0.035.

For the sequence “TATGAAAAAATATATACACACATAATAAAGGTATAT [CACACA_site3737]”, the “gcPBM binding intensity (ln)” value was 9.91 ± 0.071.

On to “TAATAAATAAAATATGCACACAAATATAGGAAACAA [CACACA_site8820]”, for which the “gcPBM binding intensity (ln)” value was 10.5 ± 0.48.

Regarding “TATATAAAGCATTGTAGTACTACCAATATTTTTTTT [XGTACX_site3523]”, the “gcPBM binding intensity (ln)” value worked out at 11.6 ± 1.

Take “AAAAAATATACATATACACACATATGTATATAGAAT [CACACA_site2170]”: the “gcPBM binding intensity (ln)” value is 9.96 ± 0.099.

For the sequence “AAAATAAACAATGAACAATAAACAATGAACAATGAA [CACACA_negctrl_site1194]”, the “gcPBM binding intensity (ln)” value is 9.935 ± 0.092.

As to “AAAATATTATAAATTTGTACTTATAAATATTGTATA [XGTACX_site8165]”, the “gcPBM binding intensity (ln)” value stood at 11 ± 0.78.

Take “ATATGTTATATGTAATGTACTTTTGATGTATATATT [XGTACX_site8615]”: the “gcPBM binding intensity (ln)” value was found to be 11 ± 0.51.

As to “ATATATATATATATATGTACATAATAATATATATTA [XGTACX_site111]”, the “gcPBM binding intensity (ln)” value was determined as 11.3 ± 0.72.

With “TAAAAGGTGTATATAATACACACGTGGGATTAGAAT [CACACA_site610]”, the “gcPBM binding intensity (ln)” value is 10.22 ± 0.057.

For “ATATGTATATTTTTTTGTACGTATTTATGTGTGTGT [XGTACX_site2093]”, the “gcPBM binding intensity (ln)” value was 11.4 ± 0.84.

For the sequence “ATATTTTATGTGTTGGTGCACATCTTTATTTAAACT [GTGCAC_site9736]”, the “gcPBM binding intensity (ln)” value came out at 10.5 ± 0.32.

Regarding “ATATATACAAGTATTTTTTTTTCAAACATTATTTTT [CACACA_negctrl_site1808]”, the “gcPBM binding intensity (ln)” value amounted to 9.84 ± 0.16.

In the case of “CGTTATATATATAAAAGTACAAAAATTAAACATTCC [XGTACX_site4568]”, the “gcPBM binding intensity (ln)” value turned out to be 11.1 ± 0.54.

On to “ATATGTAAATAAATATGTACTCATTTATTATTTTAT [XGTACX_site8748]”, for which the “gcPBM binding intensity (ln)” value stood at 11.5 ± 1.

Turning to “ATATATATAATATAATGTACGTATAATAATATGAGA [XGTACX_site2282]”, the “gcPBM binding intensity (ln)” value was 11.4 ± 0.83.

In the case of “ATTTTTTTTATTTTTTCAATATATATATATATATAT [CACACA_negctrl_site1444]”, the “gcPBM binding intensity (ln)” value was determined as 10.2 ± 0.49.

In the case of “GAAATAGAAATAAAATAGGCATACAATAGAACTAAG [TGCATGCA_negctrl_site537]”, the “gcPBM binding intensity (ln)” value was 10.06 ± 0.057.

Consider “TTATATATATATAATACACACATAATAATATATTTA [CACACA_site3038]”, for which the “gcPBM binding intensity (ln)” value was 9.855 ± 0.078.

Regarding “TCTCTATAAATAAATACATGCATATAATAAAGAATT [TGCATGCA_site710]”, the “gcPBM binding intensity (ln)” value turned out to be 9.81 ± 0.042.

For the sequence “TTATATATATATTATAGTACATATATAATATAGTAA [XGTACX_site6869]”, the “gcPBM binding intensity (ln)” value worked out at 10.9 ± 0.79.

Regarding “ATATATGAGCAAAAATATATAAGATAACACATAAAT [CACACA_negctrl_site167]”, the “gcPBM binding intensity (ln)” value is 9.93 ± 0.12.

On to “TTTATCTGATATATTACACACAAAAAAAAAAAAAAA [CACACA_site7637]”, for which the “gcPBM binding intensity (ln)” value was 9.77 ± 0.36.

For the sequence “AATATTATATATATGGGTACTAATTCCTTTAATTTC [XGTACX_site102]”, the “gcPBM binding intensity (ln)” value is 10.8 ± 0.47.

Take “CCTTATTATTATTTTACACACGTCCTAATAAGAGGA [CACACA_site1319]”: the “gcPBM binding intensity (ln)” value came to 10.3 ± 0.27.

For “TATTTAAAAATATATACACACATTTTATATTATTAT [CACACA_site781]”, the “gcPBM binding intensity (ln)” value came out at 9.78 ± 0.085.

As for “AATATATAAATAAATACACACATAAAATAGAAATAT [CACACA_site1663]”, the “gcPBM binding intensity (ln)” value amounted to 9.965 ± 0.007.

On to “AAAAACAAAAAAGAAGCACACATATATATATATATA [CACACA_site8779]”, for which the “gcPBM binding intensity (ln)” value was 10.1 ± 0.61.

As for “AAATATCTTTTATATTGTACATATTCCTTATGTGGA [XGTACX_site7638]”, the “gcPBM binding intensity (ln)” value amounted to 10.9 ± 0.52.

Take “TATTTTACAAAATAAGGTACGTAAATATATGGTAGG [XGTACX_site2133]”: the “gcPBM binding intensity (ln)” value worked out at 11.2 ± 0.5.

For “ATAATGACTAAATTTAAACACACAAGGGGAGTTTAC [CACACA_site8209]”, the “gcPBM binding intensity (ln)” value is 9.725 ± 0.007.

Turning to “TTTTTTTAAACTGAAAGTACTTATTCCAAGAAAATA [XGTACX_site50]”, the “gcPBM binding intensity (ln)” value is 11 ± 0.71.

With “ATATATATATCAACAACACACGATTAACTAAAAAAA [CACACA_site302]”, the “gcPBM binding intensity (ln)” value worked out at 9.96 ± 0.11.

For “GCATAAGAAATAAATAGTACACACATAGACACACAC [XGTACX_site3095]”, the “gcPBM binding intensity (ln)” value came out at 11.6 ± 0.85.

For the sequence “TATATATATATATACACACACATATATATATATATA [CACACA_site1346]”, the “gcPBM binding intensity (ln)” value amounted to 9.97 ± 0.45.

Consider “ATAAGATATGTATATACACACATTTATTTACATATA [CACACA_site3263]”, for which the “gcPBM binding intensity (ln)” value was found to be 9.885 ± 0.021.

Turning to TACCCATATTAATATGTGCGCATATAAAAGTCAAAC, the “gcPBM binding intensity (ln)” value is 10.5 ± 0.28.

With “CGCACAAAAATATACACACACACATCTATATTTATT [CACACA_site7675]”, the “gcPBM binding intensity (ln)” value came out at 10.02 ± 0.028.

For the sequence “AAAACAAATGAGTACACACACATAAAAGTTGAAAAT [CACACA_site6238]”, the “gcPBM binding intensity (ln)” value came out at 11.8 ± 1.3.

Turning to “TAAATAGTTATAAAAGTGCAAAAAAAAAAAAAAAAA [GTGCAC_site9550]”, the “gcPBM binding intensity (ln)” value is 9.79 ± 0.57.

As to “ACTCAAAATTATAATTGTACAAATGCTTTGTTTAAT [XGTACX_site3437]”, the “gcPBM binding intensity (ln)” value is 10.6 ± 0.31.

For “TTTTCGGATAATAATTGTACGAAACATTTAAAAAAA [XGTACX_site8898]”, the “gcPBM binding intensity (ln)” value was 10.9 ± 0.66.

For “TTGTAAGAAAAACACACACACACATATATATATATA [CACACA_site795]”, the “gcPBM binding intensity (ln)” value is 9.99 ± 0.26.

For the sequence “TATATAATATATATATGTACACATATACATTTTTAT [XGTACX_site2832]”, the “gcPBM binding intensity (ln)” value is 11.5 ± 0.97.

Take “TTAATTTCAAGTAGAAGTACTTTTATGATTGTGAGG [XGTACX_site1247]”: the “gcPBM binding intensity (ln)” value turned out to be 11.3 ± 0.83.

With “GTGCATAGATGATATACACACAATATAATAGTATGT [CACACA_site5373]”, the “gcPBM binding intensity (ln)” value came out at 10.05 ± 0.064.

“TATAATTTAGCTTGTGCATGCAGGTGCTACATTTGT [TGCATGCA_site217]”: the “gcPBM binding intensity (ln)” value stood at 10 ± 0.24.

As to “ATCATATATGTTATTACACACGTTATGTTATTATAA [CACACA_site2712]”, the “gcPBM binding intensity (ln)” value turned out to be 9.965 ± 0.035.

With “TATTATATCTTTATTATTCATCTAAAATTTGTATTT [TGCATGCA_negctrl_site233]”, the “gcPBM binding intensity (ln)” value amounted to 9.7 ± 0.12.

For “GTTTCAAAATTAAACACACACAAAAAAAAAAAAAAA [CACACA_site2680]”, the “gcPBM binding intensity (ln)” value was determined as 9.91 ± 0.4.

On to “TATTTAAAAGCATATACACACAACTGGAATGAAAAG [CACACA_site6128]”, for which the “gcPBM binding intensity (ln)” value worked out at 10.3 ± 0.23.

On to “ACATTATATCTAAGTACACACATTAATTTTTTTTTT [CACACA_site7850]”, for which the “gcPBM binding intensity (ln)” value amounted to 11.4 ± 0.85.

In the case of “CTATAACCTCTGTTCACACATATATCATAATTTACA [CACACA_site5446]”, the “gcPBM binding intensity (ln)” value was found to be 10.2 ± 0.16.

“TTTATTTTGATTTAATGTACAAATAGTAAAACAAAA [XGTACX_site4789]”: the “gcPBM binding intensity (ln)” value came out at 10.9 ± 0.49.

Regarding “TTTTCAAAAATATACACACACATAAATATAGGTATA [CACACA_site6506]”, the “gcPBM binding intensity (ln)” value was 9.835 ± 0.035.

(Values after the supplement of paper PMC11417369.)
